Reference: the RNAGym collection of RNA variant scans (doi:10.1093/nar/gkz1192)
Read counts are not given, so values of variants with three or more changes are uncertain.

B1: CPEB3 Ribozyme (parent)
chain: UAACAGGGGGCCACAGCAGAAGCGUUCACGUCGCAGCCCCUGUCAGAUUCUGGUGAAUCUGCGAAUUCUGCUGUAUAUCUC

Variants of: B1
Experiment: self-cleavage, relative activity (ratio to wild type); higher = more cleavage; in vitro, sequencing
Method in brief: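 After error-prone PCR and barcoding, CPEB3 ribozyme mutant libraries were transcribed with T7 RNA polymerase at 37°C for 5 hours, then given 15 min with DNase I before an EDTA stop, and they cleaved during both steps. Reverse transcription with template switching preceded Illumina sequencing. Relative activity divides a variant's cleaved/total read fraction by the unmutated ribozyme's. At least 5 reads were required per variant, and three batches were averaged.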

| Variant | self-cleavage |
| --- | --- |
| G8U G16C C29U C34U U58C G70A | 0.03 |
| G8U G16U G24C | 0.07 |
| G8U G33A C38A U43C A47G U69A | 0.07 |
| G8U G70U U76A | 0.14 |
| G8U U26A U51C | 0.14 |
| G8U U26C A35U C40U | 0.05 |
| G8U U31A U41C U72C | 0.07 |
| G8U U31A U51A U67A | 0.12 |
| G8U U31C A35G C39U G53A A65U | 0.04 |
| G8U U41A U43A A45G C50A U54A | 0.04 |
| G8U U41C A56G U60C | 0.06 |
| G8U U41G U43C U72A | 0.2 |
| G8U U43C A45G A77C | 0.12 |
| G8U U43C U58A | 0.4 |
| G8U U43C U78C | 0.1 |
| G8U U49A U60C | 0.11 |
| G8U U49C C62G | 0.19 |
| G8U U60A U72A | 0.1 |
| G8U U60C U67C | 0.06 |
| G8U U60C U80A | 0.21 |
| G8U U60C U80C | 0.16 |
| G9A A13G A35G A64G | 0.07 |
| G9A A13G C14U A20G U41C U60G | 0.04 |
| G9A A13G G53A U58A | 0.04 |

| Variant | self-cleavage |
| --- | --- |
| G9A A13G G70A | 0.08 |
| G9A A13G U26C A47U A56G U69C A77U | 0.14 |
| G9A A13G U26C A77G | 0.2 |
| G9A A13G U43C A45G U67C U72C | 0.05 |
| G9A A13G U72A | 0.4 |
| G9A A13U A20U C29U A45U | 0.05 |
| G9A A13U A20U U49C | 0.13 |
| G9A A13U A47U U72A U74A U78C | 0.04 |
| G9A A13U A65G | 0.1 |
| G9A A13U U66C | 0.3 |
| G9A A15C U58C | 0.11 |
| G9A A15G A45G | 0.07 |
| G9A A15G G53U A57G | 0.04 |
| G9A A15U G33A A56U U76C | 0.05 |
| G9A A18G A20G U31A A56U | 0.05 |
| G9A A18G A20U C29U A35G U69A | 0.06 |
| G9A A18G A28U U41G U69G | 0.04 |
| G9A A18G A35G | 0.14 |
| G9A A18G C34G | 0.06 |
| G9A A18G U25A A47G U54C U58C | 0.05 |
| G9A A18U A28G | 0.07 |
| G9A A18U A35U A45G U67C | 0.05 |
| G9A A18U A75U | 0.03 |
| G9A A18U C39U U43C A45G G46U U66C | 0.04 |

| Variant | self-cleavage |
| --- | --- |
| G9A A20C U72C | 0.34 |
| G9A A20G A35G U43C A45U A57G U69A | 0.15 |
| G9A A20G A35U U43C U54A U69A | 0.07 |
| G9A A20G G61C C62U A65G U74C | 0.03 |
| G9A A20G U25C | 0.06 |
| G9A A20G U25C U74C U78C | 0.04 |
| G9A A20G U25C U78C | 0.31 |
| G9A A20U A47G U58C | 0.18 |
| G9A A20U A47U U67C | 0.09 |
| G9A A20U C27U U49C | 0.25 |
| G9A A21G C32U C39U A45U | 0.04 |
| G9A A21G U26C A35U | 0.05 |
| G9A A28G U43C U49A C62U | 0.06 |
| G9A A35G A56U A65G A75G | 0.06 |
| G9A A35G U67C | 0.35 |
| G9A A35U A56G A57G | 0.16 |
| G9A A45G A56U A65G U72A | 0.06 |
| G9A A45U U54A A56G | 0.08 |
| G9A A47G U51C A56C | 0.05 |
| G9A A47G U67A | 0.39 |
| G9A A47G U76A | 0.14 |
| G9A A56G U66C | 0.05 |
| G9A A64G U69A | 0.36 |
| G9A C11U U31C A35G A47G U51A U66C | 0.04 |

| Variant | self-cleavage |
| --- | --- |
| G9A C12A U60A | 0.06 |
| G9A C14U A47G U49A A64U | 0.04 |
| G9A C17U U25A U31C U49C | 0.06 |
| G9A C23A A28G U51A U58C | 0.04 |
| G9A C23U A35G U58C G70A U80C | 0.1 |
| G9A C23U U49C C68U | 0.22 |
| G9A C27A A35G A45G U69C | 0.17 |
| G9A C29U A35C U41C A45C G70U | 0.03 |
| G9A C29U U78C | 0.41 |
| G9A C32G A35U U41C | 0.13 |
| G9A C34U U60A A64G | 0.12 |
| G9A C37G U80A | 0.29 |
| G9A C37U U49A U54C U74C | 0.03 |
| G9A C38A U58C | 0.04 |
| G9A C39A U60A C71G U80A | 0.03 |
| G9A C40U A45G U49G A65U | 0.05 |
| G9A G10C A15U A57G U80A | 0.13 |
| G9A G19U A21G U69C | 0.04 |
| G9A G22U U26C U49C | 0.05 |
| G9A G24A A56U | 0.1 |
| G9A G24A C32G U72C U76A | 0.03 |
| G9A G24U C34G U51C A57U U74C | 0.06 |
| G9A G30A U54A U74A | 0.44 |
| G9A G33A U41C A57G | 0.06 |

| Variant | self-cleavage |
| --- | --- |
| G9A U25A U31C A57G | 0.37 |
| G9A U25C A28C | 0.14 |
| G9A U25C G42C U67A | 0.09 |
| G9A U25C U31C A35G A64G C79A | 0.05 |
| G9A U25C U43C U74A A77G | 0.47 |
| G9A U25C U48C U51A | 0.14 |
| G9A U26A A28G G55U A57G U66C U72A | 0.04 |
| G9A U26A A35G | 0.59 |
| G9A U26A U51C G63C | 0.07 |
| G9A U26C A28U U67C | 0.03 |
| G9A U26C A45G | 0.07 |
| G9A U26C A45G U58C A64U A65U A75U | 0.04 |
| G9A U26C A47U U54A A56G | 0.05 |
| G9A U26C G42A U51C U54C A65U | 0.05 |
| G9A U31A G55U U69C | 0.12 |
| G9A U31C A64U U72A | 0.1 |
| G9A U31C C40U U51A A56G A64U U72A | 0.03 |
| G9A U41A A64U | 0.07 |
| G9A U41C A56G | 0.09 |
| G9A U41C C44A U58G | 0.15 |
| G9A U41C U78C | 0.46 |
| G9A U43C A64U U72A | 0.14 |
| G9A U43C U51A U78C | 0.07 |
| G9A U43C U72C U78C | 0.34 |

| Variant | self-cleavage |
| --- | --- |
| G9A U48C A56G A57U | 0.09 |
| G9A U49A G52C | 0.11 |
| G9A U51C U54G A57G U72C | 0.07 |
| G9A U60A A75G | 0.12 |
| G9A U60A C62U | 0.09 |
| G9A U67C G70A U74A | 0.11 |
| G9C A18C U41C U43C A64U U76A | 0.39 |
| G9C A18G G30C A45U C79U | 0.03 |
| G9C A18U G30A A45U | 0.06 |
| G9C A20G U60A | 0.38 |
| G9C A20U U72C U80C | 0.04 |
| G9C A21G G33A U54C U66C G73A | 0.04 |
| G9C A21U A57G U80C | 0.05 |
| G9C A35G A47G A56G U69A | 0.08 |
| G9C A35G U74C | 0.57 |
| G9C A57G U67C | 0.07 |
| G9C C38U U51C U76C | 0.09 |
| G9C C39U U43C A56G | 0.14 |
| G9C U26C A35G A56U U69A | 0.07 |
| G9C U26G U31C U58A | 0.06 |
| G9C U49C A57G U60C U72A | 0.17 |
| G9C U49C U66C A75U U78C | 0.12 |
| G9C U51A A64U U78C | 0 |
| G9C U60C U72C U78A | 0.17 |

| Variant | self-cleavage |
| --- | --- |
| G9U A13G G24U C29A A35G U69C | 0.06 |
| G9U A13G U41A U51A | 0.06 |
| G9U A13U A20G A28U A45U A56G U60G | 0.05 |
| G9U A13U A20G U26A | 0.12 |
| G9U A13U A20G U51C A56U | 0.07 |
| G9U A13U A64U | 0.06 |
| G9U A15G A20G U41A A56U C68G | 0.05 |
| G9U A15U A56G A57U | 0.07 |
| G9U A15U G33A U49G U58C | 0.15 |
| G9U A15U U31C A45C U51C U78C | 0.17 |
| G9U A15U U51G U60A U72C | 0.05 |
| G9U A15U U58C | 0.07 |
| G9U A18U A28G A56U | 0.14 |
| G9U A20G A35U U41C U80C | 0.05 |
| G9U A20G G30U | 0.19 |
| G9U A20G U76A | 0.19 |
| G9U A20U A64G U78A | 0.07 |
| G9U A20U C23U A65U U66C U72C | 0.04 |
| G9U A20U U43C | 0.06 |
| G9U A21C G30A U43C | 0.1 |
| G9U A21G A35G U69A | 0.07 |
| G9U A21G G61A | 0.19 |
| G9U A21G U31A U66C | 0.37 |
